Experimental data from PubChem BioAssay AID1918957 (Molecular Pharmacology Branch, DTP, NCI, 2023).
Certain results were filed several times, with different values. This is not the full list of results. An entry can have further records. Results that share an entry are repeated measurements (runs, samples, wells, individuals or studies). Marks such as (2×) stand for listed records that agree.

Tested on: NCI-H1876 complex spheroid viability
Assay: Anticancer human tumor NCI-H1876 cell line growth inhibition [LSD1];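 note: spheroids exposed to compounds for one week before readout; 100% = DMSO vehicle-treated spheroids so lower means fewer viable cells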
Settings: stronger effect = lower value
Excerpt: Multicellular complex tumor spheroid response to LSD1 Inhibitor Iadademstat in combination with a variety of drugs and investigational agents in selected tumor cell lines
The current study was undertaken to assess response to LSD1 inhibitors in combination with standard-of-care drugs and investigational agents in solid tumor complex spheroid models as well as in the K-562 leukemia. Complex spheroids include a stromal component modeled by human endothelial cells (HUVEC) and fibroblasts modeled by human mesenchymal stem cells (MSCs). The concentration ranges selected for each drug and investigational agent were based upon clinically achievable concentrations if the clinical Cmax of the agent was known.
Compounds. The drugs and investigational agents used in this study are listed on Table 1. All of the agents used, including staurosporine (NSC755774) and gemcitabine (NSC613327), were obtained from the Developmental Therapeutics Program, NCI. FDA-approved anticancer drugs are available from the NCI at http://dtp.nci.nih.gov/branches/dscb/oncology_drugset_explanation.html. Drugs and investigational agents were >95% pure by proton nuclear magnetic resonance (NMR) and liquid chromatography/mass spectrometry (LC/MS). Stock solutions were prepared at 400x in DMSO, stored at -70 degrees C, and diluted in fresh medium prior to their use. The final concentration of DMSO in cell culture wells never exceeded 0.25% (v/v). The FDA-approved anticancer drug set is available from the Developmental Therapeutics Program at https://dtp.cancer.gov/organization/dscb/obtaining/available_plates.htm. All drugs and investigational agents were tested over a range starting from a high concentration at or near the clinical Cmax and decreasing in half-log increments. If the clinical Cmax for an agent had not been determined, the highest concentration tested was 10 microM.
Cell Lines. The patient-derived cancer cell (PDC) lines: 292921-168-R-J2-PDC, K24384-001-R-PDC, and 521955-158-R2-J5-PDC pancreatic carcinomas, 556581-035-R-J1 ovarian carcinoma, 324938-238-R-J1-PDC, 855422-203-R-J1-PDC and 883617-216-R-J1-PDC urothelial bladder carcinomas, 743489-274-T-PDC renal cell carcinoma, 138582-R-J1 Merkel cell tumor, K60290-347-R-J1 and K57222-313-R-J1-PDC glioblastomas, 653999-131-R-J2-PDC, LG0703-F948-PDC, and 349418-098-R-PDC non-small cell lung carcinomas, 885512-296-R-J2-PDC, 171881-019-R-J1-PDC breast carcinomas and 186277-243-T-J2-PDC and 233499-124-R-J2-PDC colon carcinomas were obtained from the NCI Patient-Derived Models Repository (PDMR, https://pdmr.cancer.gov). The established cell lines NCI/ADR-RES (RRID:CVCL_14520 and OVCAR-5 (RRID:CVCL_1628) ovarian carcinomas, 786-O (RRID:CVCL_1051) and A498 (RRID:CVCL_A498) renal cell carcinoma, NCI-H211 (ATCC, cat. CRL-5824; RRID:CVCL_1529), NCI-H196 (ATCC, cat. CRL-5823, RRID:CVCL_1509), SW 1271 (ATCC, cat. CRL-2177, RRID:CVCL_1716) and NCI-H1876 (ATCC, cat. CRL-5902, RRID:CVCL_1503) small cell lung carcinomas, MDA-MB-231 (RRID:CVCL_0062) and MDA-MB-468 (RRID:CVCL_0419)breast carcinomas (10-12). Pooled donor human umbilical vein endothelial cells (HUVEC, Lonza, cat. CC-2519) and human mesenchymal stem cells (hMSC, Lonza, cat. PT-2501) were purchased from Lonza (Walkersville, MD).
Cell Culture. All cells were maintained in an incubator at 37 degrees C and 5% CO2 with 95% humidity. The PDC lines were cultured according to standard operating procedures established by the NCI PDMR (https://pdmr.cancer.gov). […]

Row | SMILES | viability, T/C (compound alone 0.1 µM) | viability, T/C (compound alone 0.316 µM) | viability, T/C (compound alone 1 µM) | viability, T/C (compound alone 3.16 µM) | viability, T/C (compound alone 10 µM)
1 | NC1CCC(NC2CC2c2ccccc2)CC1 (stereo not given) | 104 (4×), 103, 105 (2×), 102 (2×), 107 (2×), 121, 95.7, 111, 99.8, 108 (2×), 97.9, 93.5, 98.9, 117, 112, 109, 98.1, 92.1% |  |  |  | 
2 | NC1CC1c1ccc(-c2cccc(O)c2)cc1 (stereo not given) |  | 93, 106, 105 (4×), 94.2, 109 (2×), 101, 93.9, 115, 110, 113, 111, 102, 90, 100, 107, 118, 96, 95.2, 95.1, 93.2% | 100, 106 (4×), 94.6, 103, 107 (3×), 105 (2×), 111 (2×), 101, 104, 115 (3×), 122, 112 (2×), 97.7, 102, 99.8% | 104 (2×), 112 (2×), 116, 95.6, 102 (2×), 105 (3×), 109, 98.6, 90.1, 113, 100, 114, 107, 91.6, 106, 110, 97.3, 101 (2×), 99.4% | 91.5, 104 (4×), 93.9, 103 (3×), 96.9, 99.7, 100, 79.3, 111, 97, 106, 108, 116, 114, 107, 109, 98.8, 94.6, 89.8, 90.2%
